In PubChem BioAssay AID488969 (Vanderbilt High Throughput Screening Facility, 2010):
Whole data set: some 110,000 compounds, median “z-score” near -0.1, cut for the highest 2% near 2. Some of the results follow. Activity calls are given as the source filed them.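 The calls were made as follows: active = z-score in the third read window above 3 or below -3; inactive = the rest.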

What follows are compounds tested against Metabotropic glutamate receptor 8 (Rattus norvegicus) (UniProt P70579) (assay: rat mGluR8 modulators via GIRK flux, primary screen, cell-based, thallium flux, HTS (AID 488969)). Details: HEK293 rat mGluR8, GIRK (G protein-gated inwardly rectifying potassium channel) thallium flux, FluoZin2; at 10 µM; stronger effect = higher value; submaximal glutamate (EC20) added with thallium.
UniProt P70579, sequence (P70579 whole entry, looked up): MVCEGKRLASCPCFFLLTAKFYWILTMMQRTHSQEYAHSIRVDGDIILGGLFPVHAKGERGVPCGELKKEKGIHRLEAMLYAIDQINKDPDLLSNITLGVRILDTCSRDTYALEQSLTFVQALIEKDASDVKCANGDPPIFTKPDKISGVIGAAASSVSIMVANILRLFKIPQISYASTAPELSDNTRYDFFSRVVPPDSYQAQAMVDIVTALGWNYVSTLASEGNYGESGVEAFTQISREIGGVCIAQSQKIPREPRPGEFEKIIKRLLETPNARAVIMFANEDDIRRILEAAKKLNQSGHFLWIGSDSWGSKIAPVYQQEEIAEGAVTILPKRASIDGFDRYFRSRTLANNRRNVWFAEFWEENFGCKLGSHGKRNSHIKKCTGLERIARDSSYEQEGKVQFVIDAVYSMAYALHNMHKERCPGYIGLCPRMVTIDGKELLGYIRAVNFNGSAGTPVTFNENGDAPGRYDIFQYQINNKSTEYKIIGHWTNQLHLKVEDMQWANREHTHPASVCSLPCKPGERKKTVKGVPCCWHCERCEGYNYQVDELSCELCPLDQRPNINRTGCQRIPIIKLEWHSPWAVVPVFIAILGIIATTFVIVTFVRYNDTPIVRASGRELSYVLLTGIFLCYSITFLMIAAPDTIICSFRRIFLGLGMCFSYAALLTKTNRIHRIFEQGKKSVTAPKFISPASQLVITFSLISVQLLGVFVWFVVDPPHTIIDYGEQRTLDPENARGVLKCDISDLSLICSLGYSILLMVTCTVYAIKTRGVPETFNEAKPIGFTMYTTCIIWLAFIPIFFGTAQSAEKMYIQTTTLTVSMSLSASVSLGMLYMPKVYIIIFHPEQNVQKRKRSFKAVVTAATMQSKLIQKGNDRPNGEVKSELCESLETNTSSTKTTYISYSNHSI
`COC(=O)C1CSC(C(=O)OC)N1C(=O)CN1CC(C)OC(C)C1` (stereo not drawn) showed a z-score of 0.0363.
For `CCC/C(O)=C1\C(=O)CC(C)(C)CC1=Nc1ccc(OC)cc1OC`, the z-score was -2.72.
`Cc1cccc(/C=N/n2c(C)nnc2C)c1` gave a z-score of 0.00103.
`COc1ccc(OCC(=O)NCCc2ccc(S(N)(=O)=O)cc2)cc1` was tested, and the z-score was 0.211.
`Cc1ccc(Nc2nc(CSc3nnc(-c4cccs4)o3)cs2)cc1` was tested, and the z-score was 0.303.
`C=CCN(c1cccc(C(F)(F)F)c1)S(=O)(=O)c1cccc(C(=O)OCC(=O)NC(N)=O)c1` was tested, and the z-score was -0.548.
`COc1ccccc1/C=N/NC(=O)CC(=O)NCc1cccnc1` gave a z-score of -0.2.
Work on `O=C(COC(=O)c1cc([N+](=O)[O-])ccc1NCCO)c1ccccc1` yielded a z-score of -0.718.
With `CC(=O)c1ccc(NC(=O)c2cccs2)cc1` the z-score was -0.157.
With `CCOCCCNC(=O)CNC(=S)N(Cc1ccccc1F)C1CCCCC1` the z-score was 0.277.
For `Cc1ccc(C)c(NC(=S)NNC(=O)c2cc3c(s2)CCC(C)C3)c1` (stereo not drawn), the z-score was active: 10.3.
`COc1cccc2c3c(c(C)nc12)CC(C)O3` (stereo not drawn) showed a z-score of 0.179.
Work on `COc1ccc(OC)c(NC(=O)C2CCN(S(=O)(=O)c3cccs3)CC2)c1` yielded a z-score of 0.701.
Work on `CC(C)CN(C(=O)COC(=O)Cc1c[nH]c2ccccc12)C1CCS(=O)(=O)C1` (stereo not drawn) yielded a z-score of 0.133.
`CC1CCc2sc(C(=O)OC(C)C(=O)Nc3ncc(Cl)cc3Cl)cc2C1` (stereo not drawn) was tested, and the z-score was -0.0769.
Work on `Cn1ncc(C#N)c1NC(=O)c1cc(-c2ccccc2Cl)on1` yielded a z-score of 0.559.
`COC(=O)C1C(=O)NCC1c1ccc(OC)cc1` (stereo not drawn) gave a z-score of 0.0171.
With `O=C(c1ccc([N+](=O)[O-])cc1)n1nc(-c2ccccc2)nc1NCc1ccc(F)cc1` the z-score was -0.327.
Work on `Cc1cccnc1NC(=O)c1ccc([N+](=O)[O-])o1` yielded a z-score of 1.74.
`COCCN(C(=O)Nc1ccccc1)c1ccccc1` gave a z-score of -0.157.
For `CCCC1=[N+](CC(=O)c2ccccc2)CCn2c(C)ccc21`, the z-score was 0.0619.
`Cc1onc(-c2ccccc2Cl)c1C(=O)NC1CCS(=O)(=O)C1` (stereo not drawn) was tested, and the z-score was -0.0472.
`Cc1ccc2c(c1)[nH]c1c(=O)n(CCC3=CCCCC3)cnc12` was tested, and the z-score was 0.117.
In the case of `COc1cccc(C(=O)Nc2nc3ccccc3[nH]2)c1`, the z-score is reported as 0.00886.
Work on `C/C(=N\OCC(=O)Nn1c(=O)[nH]c2ccccc2c1=O)c1ccccc1` yielded a z-score of -0.434.
In the case of `COCCNC(=O)CCCn1c(=O)c2ccccc2n(CC(=O)NCCC2=CCCCC2)c1=O`, the z-score is reported as -0.376.
With `CC(=O)Nc1ccc(S(=O)(=O)NCc2ccc3[nH]c(C)cc3c2)cc1` the z-score was 0.331.
For `O=C(CNC(=O)c1ccccc1C(=O)O)c1ccccc1`, the z-score was 0.0232.
`COc1cc(/C=C(/NC(=O)c2ccccc2Cl)C(=O)O)cc(OC)c1OC` was tested, and the z-score was 1.75.
`CCOc1ccc(C2CC(=O)NC(SCC(=O)OC)=C2C#N)cc1` (stereo not drawn) gave a z-score of -0.185.
`N#Cc1c(NC(=O)CCC(=O)O)sc2c1CCCC2` showed a z-score of -1.14.
Compound `Cc1nc(Oc2ccc(Cl)cc2)c2oc3ccccc3c2n1` has a z-score of 0.203.
Work on `OC(COCc1cccs1)CN1CCN(c2ccccn2)CC1` (stereo not drawn) yielded a z-score of -0.291.
Compound `COc1c(N2CCN(C(=S)Nc3ccccc3)C(C)C2)c(F)cc2c(=O)c(C(=O)O)cn(C3CC3)c12` (stereo not drawn) has a z-score of -0.385.
`C=C1c2cc(OC)ccc2NC(=O)N1CC` gave a z-score of -0.179.
In the case of `Cc1ccc(SCCC(=O)NCc2ccco2)cc1`, the z-score is reported as -0.372.
`CN(C(=O)c1c(Cl)nc2sccn12)C1CCCCC1` gave a z-score of 0.283.
`O=C1C2C(c3ccccc3)(C(=O)N1c1ccc(Cl)cc1)C2(c1ccccc1)c1ccccc1` (stereo not drawn) was tested, and the z-score was 0.266.
Work on `Cc1ccc(-n2nc(C)c3c(=O)[nH]c(C(F)(F)F)nc32)cc1` yielded a z-score of -0.36.
Work on `CCn1nnc(NC(=O)c2cc3ccccc3o2)n1` yielded a z-score of -0.12.
`O=C(c1cccc(-c2nnc(-c3ccccc3)o2)c1)N1CCCCC1` showed a z-score of -0.346.
In the case of `CC1(c2ccccc2)NC(=O)N(CC(=O)NCCC2=CCCCC2)C1=O` (stereo not drawn), the z-score is reported as -0.118.
`CCCNC(=O)COc1cccc(C(=O)NCc2ccccc2)c1` was tested, and the z-score was -0.267.
`O=C(OCC(=O)N1CCN(c2ccccc2)CC1)c1ccccn1` gave a z-score of -0.0775.
In the case of `Cc1ccc(Sc2ncccc2C(=O)O)cc1`, the z-score is reported as -0.245.
`Cc1cc(C)c2nc(NC(=O)c3ccc4c(=O)n5c(nc4c3)CCCCC5)sc2c1` showed a z-score of -0.00607.
`Cc1cc(NS(=O)(=O)c2ccc(NC(=O)C(C)N3C(=O)c4ccccc4C3=O)cc2)nc(C)n1` (stereo not drawn) was tested, and the z-score was 0.345.
`O=C1c2ccccc2C(=O)N1CC(O)CNc1ccc(Br)cc1` (stereo not drawn) showed a z-score of -0.177.
Compound `CCNc1oc(COc2cccc(C)c2)nc1C#N` has a z-score of 0.116.
Compound `COCC(C)n1c(-c2ccc3c(c2)NC(=O)CO3)csc1=Nc1ccc(OC(F)F)cc1` (stereo not drawn) has a z-score of 0.0435.
`COc1ccc(OC)c2sc(N3CCN(c4ccccc4)CC3)nc12` showed a z-score of -0.015.
`COC(=O)c1ccccc1NC(=O)CC(NCc1ccccc1)C(=O)O` (stereo not drawn) was tested, and the z-score was -0.65.
With `O=C(CCN1CCCCC1)Nc1ccc(Br)cc1` the z-score was 0.244.
In the case of `COc1cc2cc(/C=C/C(=O)c3ccco3)c(Cl)nc2cc1OC`, the z-score is reported as 0.102.
Work on `C=CCNC(=O)C1CCN(S(=O)(=O)CC)CC1` yielded a z-score of -0.0645.
`O=C1c2ccccc2NC2(CCCCC2)N1c1ccc(O)cc1` gave a z-score of -0.127.
In the case of `Cc1ccc(NC(=O)CCC(=O)N/N=C/c2ccco2)c(C)c1`, the z-score is reported as -1.12.
For `COC(=O)c1ccccc1NC(=S)NC(=O)COc1ccccc1`, the z-score was active: 7.01.
For `COc1cc(OC)cc(C(=O)NCC(=O)N2CCC(C)CC2)c1`, the z-score was 1.29.
`O=C(Cc1csc(N2CCOCC2)n1)N/N=C/c1cccc(O)c1` was tested, and the z-score was 1.07.
Compound `Nc1nn(-c2ccccc2)c(N)c1N=Nc1ccccc1` has a z-score of -0.213.
`CS(=O)(=O)N1CCN(c2ccccc2NC(=O)c2ccc(-c3ccc(Cl)cc3Cl)o2)CC1` was tested, and the z-score was -0.0974.
For `COc1cc(C2Nn3c(nnc3-c3ccccc3OC)S2)ccc1O` (stereo not drawn), the z-score was -0.0272.
`CC(C)(C)NC(=O)COc1ccc(CNc2ccc3[nH]c(=O)[nH]c3c2)cc1` gave a z-score of -0.0446.
Compound `Cc1cc2oc(=O)cc(CN3CCN(S(=O)(=O)/C=C/c4ccccc4)CC3)c2cc1C` has a z-score of -0.0277.
In the case of `CCOC(=O)c1sc(-c2ccccc2)cc1NC(=O)CSc1nnnn1C`, the z-score is reported as 0.0316.
`O=C(Nc1ccc2c(c1)OCCO2)NC1CCCCC1` gave a z-score of 0.679.
In the case of `COc1ccc(C)cc1NS(=O)(=O)c1cn(C)c(=O)n(C)c1=O`, the z-score is reported as -0.228.
With `Nc1nnc(CCCCc2cccs2)o1` the z-score was 0.143.
With `CCc1ccc(OCCOCC(O)CN(CCO)CCO)cc1` (stereo not drawn) the z-score was -0.151.
`Cc1c(Br)c(=O)[nH]c(=O)n1COCc1ccccc1` showed a z-score of -0.214.
With `O=C(NCc1cn2ccsc2n1)Nc1ccc(Cl)cc1` the z-score was 0.193.
`CCSc1nnc(NC(=O)C(Cc2ccccc2)n2cccc2)s1` (stereo not drawn) was tested, and the z-score was active: 4.24.
In the case of `CCOc1ccc(-c2[nH]nc3c2C(c2ccc(O)cc2)C(C#N)=C(N)O3)cc1` (stereo not drawn), the z-score is reported as 0.576.
With `O=C(Cc1ccc(Br)cc1)Nc1ccccc1Sc1ccccc1` the z-score was -0.136.
In the case of `COc1ccc(OC2C(=O)N(c3cc(C)ccc3C)C2c2ccc(OC)c(OC)c2)cc1` (stereo not drawn), the z-score is reported as -0.0868.
`CCCCC(=O)Nc1ccc(C(=O)NCC(=O)OC)cc1` showed a z-score of 0.16.
In the case of `Cc1nn(C)c(C)c1S(=O)(=O)N(CC(=O)NC1CCCCCC1)c1ccc(C(C)C)cc1`, the z-score is reported as -0.146.
In the case of `C=CC[C@@H]1Cc2c(Br)ccc(Br)c2[C@@H](CC=C)N1`, the z-score is reported as -0.169.
For `COc1ccc(NC2CC(=O)N(c3cccc(C)c3)C2=O)cc1` (stereo not drawn), the z-score was 0.542.
Work on `O=C(CCNc1ccc(Cl)cc1)c1cccs1` yielded a z-score of -0.194.
Compound `COC(=O)c1cnc(SC)nc1C` has a z-score of 0.0256.
`CC1(C)CC2CC(C)(CN2S(=O)(=O)c2ccc(C(=O)Nc3cc(S(=O)(=O)N4CCOCC4)ccc3Cl)cc2)C1` (stereo not drawn) showed a z-score of 0.124.
`N/C(=N\OC(=O)C12CC3CC(CC(C3)C1)C2)c1cccnc1` was tested, and the z-score was -0.073.
Work on `Cc1ccc(SCCNC(=S)Nc2ccccc2)cc1` yielded a z-score of 0.378.
Work on `CCC(Sc1ncccc1C(=O)O)C(=O)N1CCCC1` (stereo not drawn) yielded a z-score of -0.388.
`COc1ccc(NC(=O)c2ccc(=O)[nH]c2)cc1S(=O)(=O)N1CCCCC1` gave a z-score of 0.108.
In the case of `CCOc1ccc2nc(SCC(=O)c3ccc(C)s3)sc2c1`, the z-score is reported as 0.0305.
For `O=C(COc1ccc(Cl)cc1Cl)NCCC1=CCCCC1`, the z-score was -0.104.
In the case of `CCN(CC(O)Cn1c2ccccc2c2ccccc21)S(=O)(=O)c1ccc(F)cc1` (stereo not drawn), the z-score is reported as -0.0975.
In the case of `Cn1c(SCC(=O)NC(C)(C)C)nnc1-c1cccc(NC(=O)c2ccccc2F)c1`, the z-score is reported as -0.127.
For `CCCCCCn1c2c(c(=N)c3c1CCC3)CCC2`, the z-score was 1.81.
With `COc1ccc(CN(C)CC(=O)NC(=O)NCc2ccccc2)cc1OC` the z-score was active: 5.52.
In the case of `COc1cc(OC)c2c(N)c(C#N)c(C(F)(F)C(F)(F)F)nc2c1`, the z-score is reported as -0.515.
`COCCNC(=O)C(c1cccs1)N(Cc1ccccc1)C(=O)Cn1nnc2ccccc21` (stereo not drawn) was tested, and the z-score was 0.806.
For `CCC(=O)Nc1ccc(C(=O)c2ccccc2)cc1`, the z-score was 0.687.
`Cc1ccc(S(=O)(=O)NCC(=O)N(CC(=O)NC(C)(C)C)Cc2cccs2)cc1` was tested, and the z-score was -0.259.
With `CC(C(=O)Nc1ccc(Cl)cc1)c1ncc(C(F)(F)F)cc1Cl` (stereo not drawn) the z-score was -0.108.
`COc1cc(NC(=O)CN2CCCCC2)c(C)cc1[N+](=O)[O-]` was tested, and the z-score was -0.415.
`COc1ccc(/C=N/NC(=O)Cc2csc(Nc3cccc(C(F)(F)F)c3)n2)cc1C` gave a z-score of -0.115.
`O=C(O)c1cc(S(=O)(=O)N2CCOCC2)ccc1N1CCOCC1` gave a z-score of 0.162.
`Cc1nnc(SCC(=O)Nc2ncc(Cl)cc2Cl)n1Cc1ccccc1` showed a z-score of -0.956.
For `COC(=O)Nc1snnc1C`, the z-score was -0.189.
Compound `CCc1ccc(NC(=O)N(CCN2CCOCC2)C2CCN(C(C)=O)CC2)cc1` has a z-score of 0.399.
`Cc1sc(NC(=O)CSc2nnc(C)c(=O)[nH]2)c(C#N)c1C` was tested, and the z-score was -0.571.
Work on `Cn1ncc(C#N)c1NC(=O)C1CC(c2c(F)cccc2Cl)=NO1` (stereo not drawn) yielded a z-score of -0.332.
For `O=C1C2CC=C(Cl)CC2C(=O)N1CCC[n+]1cccc2ccccc21` (stereo not drawn), the z-score was 0.155.
Work on `COc1ccc(C2SCC(C(=O)O)N2C(C)=O)cc1OC` (stereo not drawn) yielded a z-score of 0.334.
With `CN(C)S(=O)(=O)Oc1cccc(C(=O)Nc2ccc(Cl)c(Cl)c2)c1` the z-score was -0.319.
`O=C1C(=Cc2cccs2)C(=O)c2ccccc21` showed a z-score of -0.228.
`O=C(c1cnn2c1NC(c1ccco1)CC2C(F)(F)F)N1CCN(c2cccc(Cl)c2)CC1` (stereo not drawn) was tested, and the z-score was -0.25.
`Cc1ccc(-c2csc(NC(=O)Cn3cnc4c3c(=O)n(C)c(=O)n4C)n2)cc1C` gave a z-score of -0.0107.
`CC(C)NC(=O)CCNC(=O)c1ccc(F)cc1` gave a z-score of -0.0764.
